Read counts are not given, so values of variants with three or more changes are uncertain.
B1: CPEB3 Ribozyme (parent)
chain: UAACAGGGGGCCACAGCAGAAGCGUUCACGUCGCAGCCCCUGUCAGAUUCUGGUGAAUCUGCGAAUUCUGCUGUAUAUCUC

Variants of: B1
Test: self-cleavage, relative activity (ratio to wild type); higher = more cleavage; in vitro, sequencing
Method in brief: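 Relative activity was defined as the cleaved/total read fraction for a variant divided by the same fraction for the unmutated ribozyme. CPEB3 self-cleaving ribozyme libraries were made by rounds of error-prone PCR, barcoded, and transcribed in vitro with T7 RNA polymerase for 5 hours at 37°C, and cleavage ran through transcription plus a 15 min DNase I step before EDTA. Illumina sequencing of template-switched reverse transcripts gave the reads, and DNA sequencing mapped the barcodes. Averages come from three batches, using variants with at least 5 reads.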

Variant	self-cleavage
AAACAGGGGGCCACAGCAGAAGCGUUCACGUCGCAGCCCCCGUCAGAUUCUGGUGAAUCUGCGAACUCUGCUGUAUAUCUC [U1A U41C U66C]	0.33
AAACAGGGGGCCACAGCAGAAGCGUUCACGUCGCAGCCCCUGUCAGAUUCUGAUGAAUCUGCGAAUUCUGCUGUACUUCUC [U1A G53A U76C A77U]	1.16
AAACAGGGGGCCACAGCAGAAGCGUUCACGUCGCAGCCCCUGUCAGAUUCUGGUGGAUCUGCUAAAUUUGCUGUAUAUCUC [U1A A56G G63U U66A C68U]	0.23
AAACAGGGGGCUACAGCAGAGGCGUUCACGUCGCAGCCCCUUUCAUAUUCUGGUGAAUCUGCGAAUUCUGCUGUAUAUCUC [U1A C12U A21G G42U G46U]	0.09
AAACAGGGGGCCACAGCAGAAGCGCUCACGUCGCAACCCCUGUCAGAUUCUGGUGAAUCUGCGAAUUCUGCUGUAUAUCUC [U1A U25C G36A]	0.06
AAACAGGGGGCCACAGCAGAAGCGUUCACGUCGCAGCCCCUGUCAGAUUCUGGUGAAUCUGCGGAUUCUGCUGUAUAUCCC [U1A A64G U80C]	1.08
AAACAGGGGGCCACAGCAUAAGCGUUCACGUCGCAGCCCCUGUCGGAUUCUGGUGAGUCUGCGUAUUCUGCUGUAUAUCUC [U1A G19U A45G A57G A64U]	0.1
AAACAGGGGGCCACAGCAGAAGCGUUCACGUCGCAGCCCCUGUCAGAUACAGGUGAAUCUGCGAAUUCUGCUGUAUAUCUC [U1A U49A U51A]	0.24
AAACAGGGAGCCACAGCAGCAGCGUUCACGUCGCAGCCCCUGUCAGAUUCUGGUGAAUCUGCGAAUUCUGCUGUAUAUCUC [U1A G9A A20C]	0.06
AAACAGGGGGCCACAGCAGAAGCGUUCACGUCGCAUCCCCUGUCAGACUCUGGUAAAUCUGCGAAUACUGCUGUAUACCUC [U1A G36U U48C G55A U67A U78C]	0.08
AAACAGGGGGCCACAGCAGAAGCGUCCUCGUCGAAGCCACUGUCAGAUCCAGGUGAAUCUGCGAAUUCUGCUGUAUAUCUC [U1A U26C A28U C34A C39A U49C U51A]	0.16
AAACAGGGGGCCACAGCAGAAGCGUUCACGUCUCAGCCCCUGUCAGAUUCUGGCGAAUCUGCGAAUUCUGCUGUAUAUCUC [U1A G33U U54C]	0.19
AAACAGGGGGCCACAGCAGAAGCGUUCACGUCGCAGCCCCCGACAGAUUCCGGUGAAUCUGCGAAUUCUGCUGUAUAUCUC [U1A U41C U43A U51C]	0.51
AAACAGGAGGCCACAGCAGAAGCGUUCACGUCGCAGCCCCUGUCAGAUUCUGGUGAAUCUGCGAGUUCUGCUGUAUAUCCC [U1A G8A A65G U80C]	0.08
AAACAGGGGACCACAGCAGAAGCGUUCACGUCGCAGCCCCUAUCAGAUUCUGGUGGAUCUGCGUAUUCUGCUGUAUACCUC [U1A G10A G42A A56G A64U U78C]	0.04
AAACAGGGGGCCACAGGAGAAGCGUCCACGUCGCAGCCCCUGCCAGAUUCUGGUGGAUCUGCGAAUUCUGCUGUAUAUCCC [U1A C17G U26C U43C A56G U80C]	0.09
AAAUAGGGGGCCACAGCAGAAGCGUUCAGGUCGCGGCCCCUGGCAGAUUCUGGUGAAUCUGCGAGUUCUGCUGUAUAUCUC [U1A C4U C29G A35G U43G A65G]	0.34

Variant	self-cleavage
AAACAGGGGGCCACAGCAGAAGCGUUCACGUCGCAGCCCCUGCCAGAUUCUGGUGAAUCUGCGAAUCCUGCUGUAUAUCUC [U1A U43C U67C]	0.21
AAACAGGGGGCCACAGCAGAAGCGUUCAUGUCACAACCCCUGUCAGAUUCUGGUGAAUCUGCAAAUUCUGCUGUAUAUCUC [U1A C29U G33A G36A G63A]	0.13
AAAGAGGGGGCCACAGGAGAAGCGUUCCCGUCGCAGCCCCUGUCAGAUUCUGGUGAAUCUGCGAAUCCUGCUGUAUAUCUC [U1A C4G C17G A28C U67C]	0.15
AAACAGGGGGCCACAGCAGAAGCGUUCACGUCGCAGCCCCUGUCAGAUUCAGGAGAAUCUGCGGAUUCCGCUGUAUCACUC [U1A U51A U54A A64G U69C A77C U78A]	0.49
AAACAGGGGGCCACAGCAGAAGCGUUCACGUCGCAGCCCCUGUCAGAUUCUGGUGAAUCUGGGUAUUCUGCUGUAUAUCUC [U1A C62G A64U]	0.15
AAACAGGGGGCAACAGCAGAAGCGUCCACGCCGCAGCCCCUGUCAGAUUCUGGUGAAUCUGCGAAUUCUGCUGUAUAUCUC [U1A C12A U26C U31C]	0.39
AAACAUGGGGCCACAGCCGUAGCGUUCACGUCGCAGCCCCUGUCAGAUUCUGGUGAAUCUGAGAAUUCCGCUGUAUAUCCC [U1A G6U A18C A20U C62A U69C U80C]	0.13
AAACAGGGGGCCACAGCAGAAGCGAUCACGUCGCAGCCCCUGUCAGGUUCUGGUAAAUCUGCGAAUUCUGCCGUAUAUCUC [U1A U25A A47G G55A U72C]	0.06
AAACAGGGGGCCACAGCAGAAGCGCUCACGUCGCAGCCCCUGUCAGAUUCUGGUGAAUCCGCGUAUUCUGCUGUAUAUCUC [U1A U25C U60C A64U]	0.14
AAACAGGGGGCCACAGCAGAAGCGUUCACGUCGCAGCCCCUGUCGGAUUCUUGUGAAUCUGCGAGCUCUGCUGUAUACCUC [U1A A45G G52U A65G U66C U78C]	0.12
AAACAGGGGGCCACAGCAGAAGCGUUCACGUCGCAGCCCCUGUCAGAUUCUGGAGAAUCUGCGAGUUCUGCAGUAUAUCUC [U1A U54A A65G U72A]	0.16
AAACAGGGGAUCACAGCAGAAGCGCUCACGUCGCAGCCCCUGUCAGAUUCUGGUGGAUCUGCGAAUUCUGCUGUUUAUCUC [U1A G10A C11U U25C A56G A75U]	0.06
AAACAGGGGGCCACAGCAGAAGCGUUCACGUCGCAGCCCCUAUGAGAUUCUGGUGAAUCUGCGAAUUCUGCUGUAUAUCUC [U1A G42A C44G]	0.06
AAACAGGGGGCCACAGCAGAAGCGUUCACGUCGCAGCCCCUGUCAGAUUCUGGUGAAUCUGCAAACUCUGCUGUAUAUCUC [U1A G63A U66C]	0.28
AAACAGGGGGCCACAGCAGAAGCGUUCACGUCGCAGCCCCUGUCAGAUUCUGGUGAAUCUGCGAGUUCUGCUGUAUAUCAC [U1A A65G U80A]	0.41
AAACAGGGGGCCACAGCAGAAGCGUUCACGUAGCAGCCCCUGUCAGAUUCUGGUGGAUCUGCGAACUCUGCUGUAUACCUC [U1A C32A A56G U66C U78C]	0.15
AAACAGGGGGCUACAGCAGAAGCGUUCACUUCGCAGCCCCAGUCAGAUCCUGGUGAAUCUGCGAGUUCUGCUGUAUAUCUC [U1A C12U G30U U41A U49C A65G]	0.13
